Source: US20200017600A1 (Genmab, published 2020)
Where two headings read alike, the source gives them in different places.

What was measured:
[1] = biological target: T1, Human CD38 (UniProtKB-P28907), expressed on the cell surface (human, UniProt P28907 1-300); test: cell-based or functional assay
[2] = biological target: T1, Human CD38 (UniProtKB-P28907), …; test: cell-based or functional assay; remark: listed apart in the source
[3] = biological target: T1, Human CD38 (UniProtKB-P28907), …; test: cell-based or functional assay; remark: listed apart in the source
[4] = biological target: T2, Cynomolgus CD38 expressed on cynomolgus PBMCs (cynomolgus, UniProt Q5VAN0 1-301); test: flow cytometry on cynomolgus PBMCs
T2 construct: whole, on cells

B1: IgG1-C (antibody)
heavy: QVQLVQSGAEVKKPGSSVKVSCKAFGGTFSSYAISWVRQAPGQGLEWMGRIIRFLGIANYAQKFQGRVTLIADKSTNTAYMELSSLRSEDTAVYYCAGEPGERDPDAVDIWGQGTMVTVSSASTKGPSVFPLAPSSKSTSGGTAALGCLVKDYFPEPVTVSWNSGALTSGVHTFPAVLQSSGLYSLSSVVTVPSSSLGTQTYICNVNHKPSNTKVDKRV[not shown - human IgG1 Fc]
light: [not shown - about 200 residues]
CDC, percent lysis of Ramos and Daudi cells [1]: ~50%
CDC, EC50 of lysis, Daudi cells [2]: 0.25 µg/mL
CDC, EC50 of lysis, Ramos cells [2]: 0.158 µg/mL
CDC, EC50 of lysis, Wien-133 cells [2]: 0.193 µg/mL

B2: IgG1-C-E430G (antibody)
heavy: QVQLVQSGAEVKKPGSSVKVSCKAFGGTFSSYAISWVRQAPGQGLEWMGRIIRFLGIANYAQKFQGRVTLIADKSTNTAYMELSSLRSEDTAVYYCAGEPGERDPDAVDIWGQGTMVTVSSASTKGPSVFPLAPSSKSTSGGTAALGCLVKDYFPEPVTVSWNSGALTSGVHTFPAVLQSSGLYSLSSVVTVPSSSLGTQTYICNVNHKPSNTKVDKRV[not shown - human IgG1 Fc with E430G (EU numbers)]
light: [not shown - about 200 residues]
notes: also called IgG-C-E430G
CDC, EC50 of lysis, 697 cells [3]: 0.087 µg/mL
CDC, EC50 of lysis, AML-193 cells [3]: 0.032 µg/mL
CDC, EC50 of lysis, DOHH2 cells [3]: 0.115 µg/mL
CDC, EC50 of lysis, Daudi cells [3]: 0.03 µg/mL
CDC, EC50 of lysis, HL-60 cells [3]: 0.07 µg/mL
CDC, EC50 of lysis, JVM-3 cells [3]: 0.11 µg/mL
CDC, EC50 of lysis, JVM-13 cells [3]: 0.146 µg/mL
CDC, EC50 of lysis, Jeko-1 cells [3]: 0.108 µg/mL
CDC, EC50 of lysis, KG-1 cells [3]: 0.104 µg/mL
CDC, EC50 of lysis, MEGAL cells [3]: 0.17 µg/mL
CDC, EC50 of lysis, ML-2 cells [3]: 0.023 µg/mL
CDC, EC50 of lysis, MOLM-13 cells [3]: 0.017 µg/mL
CDC, EC50 of lysis, NALM-16 cells [3]: 0.022 µg/mL
CDC, EC50 of lysis, Nomo-1 cells [3]: 0.039 µg/mL
CDC, EC50 of lysis, Oci-AML3 cells [3]: 0.046 µg/mL
CDC, EC50 of lysis, Oci-Ly18 cells [3]: 0.057 µg/mL
CDC, EC50 of lysis, Oci-Ly-7 cells [3]: 0.012 µg/mL
CDC, EC50 of lysis, Oci-Ly-19 cells [3]: 0.031 µg/mL
CDC, EC50 of lysis, REH cells [3]: 0.039 µg/mL
CDC, EC50 of lysis, RS4; 11 cells [3]: 0.093 µg/mL
CDC, EC50 of lysis, Raji cells [3]: 0.036 µg/mL
CDC, EC50 of lysis, Ramos cells [3]: 0.013 µg/mL
CDC, EC50 of lysis, SU-DHL-4 cells [3]: 0.073 µg/mL
CDC, EC50 of lysis, SU-DHL-8 cells [3]: 0.009 µg/mL
CDC, EC50 of lysis, THP-1 cells [3]: 0.075 µg/mL
CDC, EC50 of lysis, U266 cells [3]: 0.052 µg/mL
CDC, EC50 of lysis, U937 cells [3]: 0.057 µg/mL
CDC, EC50 of lysis, WSU-DLCL2 cells [3]: 0.345 µg/mL
CDC, EC50 of lysis, Wien133 cells [3]: 0.015 µg/mL
CDC, EC50 of lysis, Z-138 cells [3]: 0.106 µg/mL
CDC, EC50 of lysis, monomac6 cells [3]: 0.093 µg/mL
CDC, percent lysis of Ramos and Daudi cells [1]: ≤ 100%
CDC, EC50 of lysis, Daudi cells [2]: 0.019 µg/mL
CDC, EC50 of lysis, NALM-16 cells [2]: 0.022 µg/mL
CDC, EC50 of lysis, REH cells [2]: 0.017 µg/mL
CDC, EC50 of lysis, RS4; 11 cells [2]: 0.056 µg/mL
CDC, EC50 of lysis, Ramos cells [2]: 0.014 µg/mL
CDC, EC50 of lysis, U266 cells [2]: 0.052 µg/mL
CDC, EC50 of lysis, Wien-133 cells [2]: 0.015 µg/mL
binding result [4]: no binding (tested: 0.005-10 µg/mL)
